# Measurements published in PubChem BioAssay AID652104 (National Center for Advancing Translational Sciences (NCATS), 2013).
# The whole screen tested about 410,000 compounds, of which about 7,200 (1.8%) were called active. This list was built around the results that the source calls inconclusive (neither active nor inactive); the mix of calls is not that of the screen. Calls follow the shape of the dose curve; as a rule, active = well fitted activation curve with a large enough effect; inconclusive = small, poorly fitted or top-dose-only effect, or another doubt; inactive = no such curve, though single readings can be large or run the other way. No potency is given beside an inconclusive call; the fits are too rough.
# Assay: qHTS of TDP-43 Inhibitors; also: nearly all actives have a fitted effect of over 50% in size; as to growth rescue (activation): % of control where 0% means no effect
# Settings: TDP-43 expressing yeast growth rescue, BacTiter-Glo, 24 h; growth rescue (activation): at 46.1 µM (top of the series) unless noted
# Summary of the method: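 Luminescence from BacTiter-Glo reports growth of TDP-43-expressing yeast after 24 hr at 30 deg C with compound. Cells were raffinose-pregrown to mid-log, then seeded in galactose medium at OD600=0.02.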
# Potency is read from the fitted curve at half-maximal effect; tags tell the direction and shape of the fitted curve.
SMILES,Potency,growth rescue (activation)
O=C(NCc1ccccc1)c1ccc2c(c1)N(Cc1ccccc1)C(=O)c1ccccc1S2(=O)=O,"inconclusive [activator, full curve]",
CC1CCCN(C(=O)CSc2nc3ccccc3o2)C1 (centres undefined),"inconclusive [activator, single point]",
COc1ccc(-c2csc(C(C)(O)c3cccc(F)c3)n2)cn1 (centres undefined),"inconclusive [activator, single point]",
O=C(c1cnc2c(c1)COc1ccccc1-2)c1ccccc1O,"inconclusive [activator, single point]",
CC(=O)c1ccc2c(c1)N(C)c1ccccc1S2,"inconclusive [activator, single point]",
N#CC1(NC(=O)COC(=O)c2ccc(-c3ccc(O)cc3)cc2)CCCCC1,"inconclusive [activator, partial curve]",
Cc1cccc(C(=O)Nc2ccc(C(=O)OCc3cc(=O)n4c(C)csc4n3)cc2)c1,,inactive: 15%
CCOC(=O)c1sc(=S)n(-c2ccc(C)cc2)c1N,"inconclusive [activator, partial curve]",
O=S(=O)(NCC1CCCO1)c1ccc(Oc2ccccc2)cc1 (centres undefined),"inconclusive [activator, single point]",
Cc1ccc(-n2nnnc2SCc2ccccn2)cc1C,"inconclusive [activator, single point]",
Cn1ncc2c(Nc3ccc(Cl)c(Cl)c3)ncnc21,active: 7.08 µM,
COc1ccc(-c2ccc(C(=O)Nc3cccc(F)c3)c3occc23)c(C)c1,,inactive: 26%
COc1ccc(-c2noc(=O)n2Cc2ccc(F)cc2Cl)cc1,"inconclusive [activator, single point]",
CC(=O)c1cnc(-c2cccc(Cl)c2)s1,"inconclusive [activator, partial curve]",
Cc1cc(-c2ccccc2)c(C#N)c(=S)[nH]1,"inconclusive [activator, single point]",
O=C(NC12CC3CC(CC(C3)C1)C2)c1cccc(OC(F)F)c1,"inconclusive [activator, partial curve]",
Cc1cc(C)cc(NC(c2nnc(-c3cccc(F)c3)o2)c2ccc(F)cc2Cl)c1 (centres undefined),,inactive: 11.8%
O=C(NC(=S)Nc1cc(Cl)ccc1O)c1cccc(Br)c1,"inconclusive [activator, partial curve]",
CC(=O)c1ccc(NC(=O)CSc2c(C(C)C)cnc3c2c(=O)n(C)c(=O)n3C)cc1,"inconclusive [activator, full curve]",
